From US20020009726A1 (LA JOLLA CANCER RESEARCH FOUNDATION, published 2002)

Target: T1, CD40 from RS11846 B-cell lymphoma cell lysate (human, UniProt P25942 21-277)
T1 construct: Endogenous protein solubilised from cells; also called CD40 in the cell lysate
Test: GST pull-down from RS11846 lymphoma cell lysate, western blot with anti-CD40
Description: For experiments with cell lysates, 2×10⁷ RS11846 B-cell lymphoma cells were lysed in 0.25 ml of ice-cold Tris buffered saline (TBS) pH 7.4 (10 mM Tris and 150 mM NaCl) including 5 mM EDTA, 1% Triton-X100, with protease inhibitors PMSF, aprotinin, leupeptin, benzamidine, and pepstatin. Nuclei and cellular debris were removed from the cell lysate by centrifugation as described (Reed et al., Canc. Res. 51:6529-6538 (1991)). […] Proteins adsorbed to beads were eluted by boiling in SDS-PAGE sample buffer, electrophoresed in SDS-PAGE gels containing 12% acrylamide and then transferred to nitrocellulose for western blotting. The resulting blots were preblocked in TBS buffer containing 5% non-fat milk and 3% bovine serum albumin and then incubated with 2 μl/ml of anti-human CD40 monoclonal antibody B-B20 (Biosource, Inc., Camarillo Calif.) followed by horseradish peroxidase-conjugated goat anti-mouse IgG (see Reed et al., supra, 1992; Hanada et al., Canc. Res. 53:4978-4986 (1993), which is incorporated herein by reference). The presence of bound peroxidase was detected using an emission chemiluminescence method performed according to the manufacturer's instructions (Amersham, Inc., Arlington Heights Ill.).

T1 sequence (P25942 21-277 limits assumed): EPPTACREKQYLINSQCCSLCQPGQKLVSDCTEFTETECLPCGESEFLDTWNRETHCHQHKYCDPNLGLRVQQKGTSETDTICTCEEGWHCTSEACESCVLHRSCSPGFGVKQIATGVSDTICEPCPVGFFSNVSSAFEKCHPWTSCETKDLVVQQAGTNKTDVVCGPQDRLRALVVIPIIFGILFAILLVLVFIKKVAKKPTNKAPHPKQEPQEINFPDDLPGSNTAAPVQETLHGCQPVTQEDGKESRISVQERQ

binding result: no binding
B1: GST (enzyme)
chain: not shown
notes: Control bait on glutathione-Sepharose beads; also called GST itself; GST-control protein
